Laboratory results: US20180291110A1 (Hoffmann-La Roche, published 2018)

Key:
[1] = biological target: T1, transferrin receptor on BA/F3 cells (UniProt Q62351); test: flow cytometry on mTfR+ BA/F3 cells, PE-labeled goat anti-human Fc gamma secondary antibody
T1 construct: whole, on cells; also called TfR+ BA/F3 cells; TfR+ BAF3 cells

[2] = biological target: T2, HER2 on cells (BT474-M1, BT-474) (human, UniProt P04626); test: flow cytometry on HER2+ BT474 M1 cells, PE-labeled goat anti-human Fc gamma secondary antibody
T2 construct: whole, on cells; also called HER2+ BT474-M1 cells

T1 sequence (Q62351 whole entry): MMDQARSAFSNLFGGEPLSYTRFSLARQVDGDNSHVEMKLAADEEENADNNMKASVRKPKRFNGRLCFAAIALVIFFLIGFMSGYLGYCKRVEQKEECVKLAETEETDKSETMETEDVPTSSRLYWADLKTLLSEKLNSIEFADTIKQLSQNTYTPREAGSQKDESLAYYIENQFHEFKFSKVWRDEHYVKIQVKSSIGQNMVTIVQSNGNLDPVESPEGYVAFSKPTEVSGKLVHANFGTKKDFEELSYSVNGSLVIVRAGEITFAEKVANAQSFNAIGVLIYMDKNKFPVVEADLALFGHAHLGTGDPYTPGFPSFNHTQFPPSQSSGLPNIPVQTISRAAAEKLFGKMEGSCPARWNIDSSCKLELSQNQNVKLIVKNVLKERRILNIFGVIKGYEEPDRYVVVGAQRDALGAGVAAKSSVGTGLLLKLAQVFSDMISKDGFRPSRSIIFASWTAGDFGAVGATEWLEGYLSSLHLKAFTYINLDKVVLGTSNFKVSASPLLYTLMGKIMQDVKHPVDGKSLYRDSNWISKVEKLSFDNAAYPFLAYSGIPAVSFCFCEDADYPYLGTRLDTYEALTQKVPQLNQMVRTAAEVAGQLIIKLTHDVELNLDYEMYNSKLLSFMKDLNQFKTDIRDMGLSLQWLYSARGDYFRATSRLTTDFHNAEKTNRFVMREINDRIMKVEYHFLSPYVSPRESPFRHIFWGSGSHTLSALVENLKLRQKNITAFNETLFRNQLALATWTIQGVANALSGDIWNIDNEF

| Binder | binding result [1] | EC50 (read off the curve) [2] |
| --- | --- | --- |
| Herceptarg-scFab(8D3) (BBB-0580) (other, Trispecific, trivalent antibody; also called Herceptarg-8D3; trivalent Herceptarg-scFab(8D3)) heavy 1: [about 450 residues with a human IgG1 Fc not printed]GGSGGGGSGGGGSGGGGSDIQMTQSPASLSASLEEIVTITCQASQDIGNWLAWYQQKPGKSPQLLIYGATSLADGVPSRFSGSRSGTQFSLKISRVQVEDIGIYYCLQAYNTPWTFGGGTKVEIKRTVAAPSVFIFPPSDEQLKSGTASVVCLLNNFYPREAKVQWKVDNALQSGNSQESVTEQDSKDSTYSLSSTLTLSKADYEKHKVYACEVTHQGLSSPVTKSFNRGECGGGGSGGGGSGGGGSGGGGSGGGGSGGGGSGGEVQLVESGGGLVQPGNSLTLSCVASGFTFSNYGMHWIRQAPKKGLEWIAMIYYDSSKMNYADTVKGRFTISRDNSKNTLYLEMNSLRSEDTAMYYCAVPTSHYVVDVWGQGVSVTVSSASTKGPSVFPLAPSSKSTSGGTAALGCLVKDYFPEPVTVSWNSGALTSGVHTFPAVLQSSGLYSLSSVVTVPSSSLGTQTYICNVNHKPSNTKVDKKVEPKSC heavy 2: EVQLVESGGGLVQPGGSLRLSCAASGFTFNDYTMDWVRQAPGKGLEWVADVNPNSGGSIVNRRFKGRFTLSVDRSKNTLYLQMNSLRAEDTAVYYCARNLGPFFYFDYWGQGTLVTVSSASTKGPSVFPLAPSSKSTSGGTAALGCLVKDYFPEPVTVSWNSGALTSGVHTFPAVLQSSGLYSLSSVVTVPSSSLGTQTYICNVNHKPSNTKVDKKV[human IgG1 Fc with changes not printed] light: DIQMTQSPSSLSASVGDRVTITCKASQDVSTAVAWYQQKPGKAPKLLIYSASFRYTGVPSRFSGSRSGTDFTLTISSLQPEDFATYYCQQHYTTPPTFGQGTKVEIKRTVAAPSVFIFPPSDEQLKSGTASVVCLLNNFYPREAKVQWKVDNALQSGNSQESVTEQDSKDSTYSLSSTLTLSKADYEKHKVYACEVTHQGLSSPVTKSFNRGEC | binds | ~5 nM |
| Herceptarg(LALA)-scFab(8D3) (BBB-0581) (other, Trispecific, trivalent antibody; also called Herceptarg (LALA)-8D3; Herceptarg(LALA-PG)-scFab(8D3)) heavy 1: [about 450 residues with a human IgG1 Fc not printed]GGSGGGGSGGGGSGGGGSDIQMTQSPASLSASLEEIVTITCQASQDIGNWLAWYQQKPGKSPQLLIYGATSLADGVPSRFSGSRSGTQFSLKISRVQVEDIGIYYCLQAYNTPWTFGGGTKVEIKRTVAAPSVFIFPPSDEQLKSGTASVVCLLNNFYPREAKVQWKVDNALQSGNSQESVTEQDSKDSTYSLSSTLTLSKADYEKHKVYACEVTHQGLSSPVTKSFNRGECGGGGSGGGGSGGGGSGGGGSGGGGSGGGGSGGEVQLVESGGGLVQPGNSLTLSCVASGFTFSNYGMHWIRQAPKKGLEWIAMIYYDSSKMNYADTVKGRFTISRDNSKNTLYLEMNSLRSEDTAMYYCAVPTSHYVVDVWGQGVSVTVSSASTKGPSVFPLAPSSKSTSGGTAALGCLVKDYFPEPVTVSWNSGALTSGVHTFPAVLQSSGLYSLSSVVTVPSSSLGTQTYICNVNHKPSNTKVDKKVEPKSC heavy 2: EVQLVESGGGLVQPGGSLRLSCAASGFTFNDYTMDWVRQAPGKGLEWVADVNPNSGGSIVNRRFKGRFTLSVDRSKNTLYLQMNSLRAEDTAVYYCARNLGPFFYFDYWGQGTLVTVSSASTKGPSVFPLAPSSKSTSGGTAALGCLVKDYFPEPVTVSWNSGALTSGVHTFPAVLQSSGLYSLSSVVTVPSSSLGTQTYICNVNHKPSNTKVDKKVEPKSCDKTHTCPPCPAPEAAGGPSVFLFPPKPKDTLMISRTPEVTCVVVDVSHEDPEVKFNWYVDGVEVHNAKTKPREEQYNSTYRVVSVLTVLHQDWLNGKEYKCKVSNKALGAPIEKTISKAKGQPREPQVCTLPPSRDELTKNQVSLSCAVKGFYPSDIAVEWESNGQPENNYKTTPPVLDSDGSFFLVSKLTVDKSRWQQGNVFSCSVMHEALHNRFTQKSLSLSPGK light: DIQMTQSPSSLSASVGDRVTITCKASQDVSTAVAWYQQKPGKAPKLLIYSASFRYTGVPSRFSGSRSGTDFTLTISSLQPEDFATYYCQQHYTTPPTFGQGTKVEIKRTVAAPSVFIFPPSDEQLKSGTASVVCLLNNFYPREAKVQWKVDNALQSGNSQESVTEQDSKDSTYSLSSTLTLSKADYEKHKVYACEVTHQGLSSPVTKSFNRGEC | binds | ~3 nM |
